Measurements reported in patent US20160237147A1.

B1: anti-NGF antibody 7H2 (antibody, V domains shown)
VH: EVQLVESGGGLVQPGRSLRLSCAASGFIFDDYAMHWVRQAPGKGLEWVSGITWNSGILGYADSVKGRFTISRDDAKNSLYLQMNSLRAEDTALYYCAKEEGSGRYYNFDYWGQGTLVTVSS
VL: [about 100 residues not written out]
B2: 7H2-rFc (molecular clone of 7H2 expressed in CHO cells) (antibody, V domains shown)
VH: EVQLVESGGGLVQPGRSLRLSCAASGFIFDDYAMHWVRQAPGKGLEWVSGITWNSGILGYADSVKGRFTISRDDAKNSLYLQMNSLRAEDTALYYCAKEEGSGRYYNFDYWGQGTLVTVSS
VL: [about 100 residues not written out]

Legend:
[1] = biological target: recombinant rat beta-NGF (R&D Systems) (rat) (UniProt P25427); test: cell-based or functional assay
[2] = biological target: recombinant human NGF 1-120 (human) (UniProt P01138); test: cell-based or functional assay
Chain of UniProt P01138 (P01138 other isoform, or with tags, fused parts or gaps): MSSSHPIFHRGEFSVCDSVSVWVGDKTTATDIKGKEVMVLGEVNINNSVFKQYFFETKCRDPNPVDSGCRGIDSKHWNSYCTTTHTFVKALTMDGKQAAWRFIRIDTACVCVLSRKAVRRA

Chain of UniProt P25427 (P25427 122-241 limits assumed): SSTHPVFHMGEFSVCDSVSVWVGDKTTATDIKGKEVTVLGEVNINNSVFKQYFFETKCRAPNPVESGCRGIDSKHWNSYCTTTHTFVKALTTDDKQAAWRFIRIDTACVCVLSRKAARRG

Binder | IC50 @ rNGF, NGF neutralization activity as in Example 3 [1] [nM] | IC50 @ hNGF, NGF neutralization activity as in Example 3 [2] [nM] | IC50 @ rNGF, NGF neutralization activity of the molecular clone expressed in CHO cells [1] [nM] | IC50 @ hNGF, NGF neutralization activity of the molecular clone expressed in CHO cells [2] [nM]
B1 | 1.75 | 3.29 | – | –
B2 | – | – | 0.792 | 0.963
